# Sequences with one replicate were seen in a single cluster, so their values are uncertain.
# System: ATP
# Assay: switch fluorescence ratio, 500 uM ATP over buffer (Cy3 cluster intensity, sum of 5 cycles each) (fold (ratio)); higher = stronger signal-on switching upon ATP binding; sequences stand for … in TCGTCGGCAGCGTCAGATGTGTATAAGAGACAGTTTTTTTTTTTTTTTTTTTTTTTTT…TC
# Conditions: aptamer strand: ATP DNA aptamer (quencher-CACCTGGGGGAGTATTGCGGAGGAAGG + anchor), 100 nM annealed; ATP concentration: 500 uM; one replicate
# How it was run: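 Between each of five buffer/ATP cycles, the flow-cell was stripped with NaOH and re-annealed. Each cycle imaged Cy3-labelled switching-strand clusters, annealed to 100 nM quencher-labelled ATP aptamer on a modified Illumina MiSeq flow-cell, first in selection buffer and then after 15 min with 500 uM ATP at 22 °C. The fluorescence ratio is summed target-cycle over summed buffer-cycle Cy3 intensity per cluster, averaged per switch-domain sequence, with clusters outside 100-1000 RFU excluded.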
# 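Note: ATP exposure 15 min at 22 °C before imaging.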
row,Sequence,switch fluorescence ratio
1,GCGGGAGAGT,1.03
2,GCGGGAGGTT,1
3,GCGGGGAGAG,1.04
4,GCGGGGCCGG,0.967
5,GCGGGGGACG,1.07
6,GCGGGGTCGA,1.03
7,GCGGGTGATG,1.01
8,GCGGGTGCAT,0.998
9,GCGGTATACT,1.32
10,GCGGTGAGTA,0.967
11,GCGGTGGGAT,1.04
12,GCGGTTCACG,1.02
13,GCGGTTCCGT,1.04
14,GCGGTTGGGT,0.941
15,GCGTAAGACG,1.15
16,GCGTACCTGT,0.994
17,GCGTACGTAT,0.996
18,GCGTAGTGCG,1.02
19,GCGTATGGGC,1.01
20,GCGTATTAAC,1.03
21,GCGTCAGTTA,1.04
22,GCGTCATCCA,0.981
23,GCGTCCAGGG,1.26
24,GCGTCTAACA,0.97
25,GCGTCTAAGT,1.02

row,Sequence,switch fluorescence ratio
1,GCGTCTTCAC,1.03
2,GCGTGAAATG,0.999
3,GCGTGATTGG,1.01
4,GCGTGCAATT,0.99
5,GCGTGCATCA,1.02
6,GCGTGGATGA,1.03
7,GCGTGGCTCG,0.981
8,GCGTGGTACG,1.51
9,GCGTGTCTAA,1
10,GCGTGTTCTA,0.964
11,GCGTGTTTTC,0.973
12,GCGTTAAGAC,1.41
13,GCGTTACCTC,1.03
14,GCGTTAGGTT,1
15,GCGTTTCCA,0.948
16,GCGTTTCCCA,0.952
17,GCGTTTGTTG,0.933
18,GCTAAAAGAA,1.02
19,GCTAAACCAA,1.06
20,GCTAAAGGTT,0.982
21,GCTAACTTTC,1.07
22,GCTAAGCCCG,1.01
23,GCTAAGTTAA,0.986
24,GCTAATCGGA,0.96
25,GCTAATTCTC,1.08

row,Sequence,switch fluorescence ratio
1,GCTACCCTTT,1.09
2,GCTACTCGA,1.07
3,GCTACTGTTT,1.01
4,GCTAGAATAC,1.72
5,GCTAGAGTTC,0.967
6,GCTAGATACC,0.993
7,GCTAGCACAG,1.01
8,GCTAGCGCCG,1.11
9,GCTAGCTCGA,0.952
10,GCTAGGTGCG,1.04
11,GCTATAGCAG,1.02
12,GCTATCAAGA,1
13,GCTATCATAC,1.39
14,GCTATCGTGA,1.02
15,GCTATCTCGC,1.05
16,GCTATGAGG,0.966
17,GCTATGTGCC,0.978
18,GCTATTACGG,1.06
19,GCTATTATGG,0.961
20,GCTATTCTAT,1.06
21,GCTCAAAAAA,1.01
22,GCTCAATGAA,0.996
23,GCTCACGACA,1.18
24,GCTCCAATAG,5.6
25,GCTCCACCCA,1.19

row,Sequence,switch fluorescence ratio
1,GCTCCGTGTT,1.99
2,GCTCCTGGGA,1.31
3,GCTCGACCCG,1.02
4,GCTCGACCTT,1.11
5,GCTCGCCGCA,1.02
6,GCTCGGAGTA,1
7,GCTCGGGAAA,1.05
8,GCTCGGGATG,1.04
9,GCTCGTTACC,0.968
10,GCTCTAAAAG,1.01
11,GCTCTACCCT,1.11
12,GCTCTCAAAC,1.72
13,GCTCTCATAA,1.08
14,GCTCTCGGAT,1
15,GCTCTGATCG,1.05
16,GCTCTGCACG,1.47
17,GCTCTGGAAA,1.09
18,GCTCTGGGTG,1.53
19,GCTCTTTAAA,1
20,GCTCTTTTTA,1.01
21,GCTGAAGGCA,1.06
22,GCTGACGTGT,1.04
23,GCTGACTCGT,0.967
24,GCTGATGGTA,1.05
25,GCTGATTC,0.953

row,Sequence,switch fluorescence ratio
1,GCTGCCTACT,1.01
2,GCTGCGCTGT,1.37
3,GCTGCGGGGG,1.03
4,GCTGCTAGGG,0.995
5,GCTGGAAGGT,0.995
6,GCTGGCAGAA,0.993
7,GCTGGCGAAT,1.04
8,GCTGGCTGTC,0.995
9,GCTGGGCTG,0.999
10,GCTGGGCTTT,0.957
11,GCTGGGGAGA,1.04
12,GCTGGGGGC,1.01
13,GCTGGGTATG,1.01
14,GCTGGTAATC,0.976
15,GCTGGTAGCT,0.985
16,GCTGGTCTCG,1.02
17,GCTGGTGCCG,0.995
18,GCTGGTGTTA,1.04
19,GCTGGTTAAG,1.03
20,GCTGTAAAGG,1
21,GCTGTAACGT,0.952
22,GCTGTACCGA,1.04
23,GCTGTACCTC,1.1
24,GCTGTAGTAA,1.32
25,GCTGTATAAA,1.01

row,Sequence,switch fluorescence ratio
1,GCTGTGATTT,1.02
2,GCTGTGCGA,1.06
3,GCTGTGTTCA,0.929
4,GCTGTTAGGT,0.966
5,GCTTAAACAT,1.01
6,GCTTAAAGTG,0.958
7,GCTTAACAGA,1.01
8,GCTTAACAGG,1.01
9,GCTTAAGCTG,0.995
10,GCTTAAGGGT,0.946
11,GCTTAAGGTT,0.964
12,GCTTAATTGA,0.969
13,GCTTACGGCG,0.975
14,GCTTAGATGC,0.946
15,GCTTAGCCTA,0.987
16,GCTTATTGGC,1
17,GCTTCATGCG,0.981
18,GCTTCCCTCG,1.55
19,GCTTCCGGTG,2.03
20,GCTTCGGTTA,1.03
21,GCTTCTCCGA,1.49
22,GCTTCTGTTC,1.05
23,GCTTGACCCG,1.01
24,GCTTGCTATC,1.04
25,GCTTGGCAAT,1.13

row,Sequence,switch fluorescence ratio
1,GCTTGTTTCC,0.988
2,GCTTGTTTCT,1.02
3,GCTTTAAACA,1
4,GCTTTAGA,1.01
5,GCTTTAGAAC,0.976
6,GCTTTAGAGT,1.02
7,GCTTTCAT,1.04
8,GCTTTCGCGC,1.03
9,GCTTTGTGTG,1.01
10,GCTTTTAACA,0.982
11,GCTTTTCTCT,1.02
12,GCTTTTGCAT,0.971
13,GGAAAAAGTA,1.01
14,GGAAAAATAA,0.989
15,GGAAAATCCT,0.959
16,GGAAAATGGT,0.987
17,GGAAATGTCA,0.987
18,GGAAATTCCG,0.992
19,GGAAATTCTG,0.962
20,GGAACAGACA,1.07
21,GGAACCCCCT,1.39
22,GGAACCCGTC,1.13
23,GGAAGTATCA,0.983
24,GGAAGTGGTG,1.01
25,GGAAGTTTAC,1.02

row,Sequence,switch fluorescence ratio
1,GGAATAAACG,0.973
2,GGAATATCTT,0.976
3,GGAATCACAC,0.965
4,GGAATCCACC,1.04
5,GGAATCCTCA,1.01
6,GGAATCGTGG,0.956
7,GGAATGAAAA,1
8,GGAATTCGAA,1.01
9,GGAATTGCGG,1.01
10,GGACACTTGA,1.04
11,GGACAGACGG,1.05
12,GGACAGGGTA,0.974
13,GGACAGGTTG,0.954
14,GGACATATA,1.01
15,GGACATTGGA,0.994
16,GGACCCCTTA,1.02
17,GGACCGGTAC,1.01
18,GGACCGTCGA,1.05
19,GGACCGTTTC,0.957
20,GGACGAAAAG,1
21,GGACGACTGT,1
22,GGACGAGGCA,1.29
23,GGACGGAGGG,1.04
24,GGACGGATGG,0.98
25,GGACGGGACA,1.1
